According to ChEMBL document CHEMBL4888484, “Replenishing the malaria drug discovery pipeline: Screening and hit evaluation of the MMV Hit Generation Library 1 (HGL1) against asexual blood stage Plasmodium falciparum ,using a nano luciferase reporter read-out” (2022):
About 540 (0.36%) of roughly 150,000 compounds showed an effect of 50% or more. This is one part of the list.

Tested on: Plasmodium falciparum
Test: Primary screen in NF54 nanoGlo assay, in single point, at 2uM, 72h; a lower Z score goes with more inhibition
Type: functional, Erythrocyte
Details: timepoint 72 hour

Row | Compound | % Inhibition [%] | Z score
1 | Cc1ncnc(N2CCC(N3CCNC(=O)CC3)CC2)c1C | 4 | -0.65
2 | C[C@H](NCc1nc(N(C)C)no1)c1ccc(OCC2CC2)c(F)c1 | -5 | 0.61
3 | Cc1cc(C(=O)N[C@H](c2ncccc2C)C2CC2)on1 | 13 | -1.86
4 | COc1cc(C)cnc1C(=O)NCC1CCN(C2CC2)CC1 | -5 | 0.47
5 | CCCCS(=O)(=O)N1CCc2nn(CCOC)c(=O)n2CC1 | -5 | 0.68
6 | O=C(CC1CCCC1)NCCn1ccnc1-c1ccccn1 | 13 | -1.67
7 | Cc1ccc(N(C)S(=O)(=O)c2c(C(=O)N3CCOCC3)c(C)n(C)c2C)cc1 | -15 | 2.94
8 | Cc1cc(-c2cccc(C(=O)NCC3(N4CCCC4)CCCCC3)c2)ccn1 | -11 | 2.07
9 | Nc1[nH]nc(-c2ccccn2)c1-c1ccc2c(c1)OCO2 | 26 | -2.97
10 | Cc1ccc(NC(=O)C2(C)COC2)c(F)c1 | 5 | -0.75
11 | CCn1ccc(C(=O)N2CCCN(Cc3c(C)noc3C)CC2)n1 | -3 | 0.35
12 | Cc1c(CN2CCC(CCC(=O)N3CCOCC3)CC2)[nH]c2ccc(Cl)cc12 | 5 | -0.58
13 | O=c1cnnc(NCc2ccccc2)n1Cc1ccccc1 | 5 | -0.65
14 | C#CCN(CC#CC)CC(=O)N[C@](C)(C#N)C1CC1 | 2 | -0.23
15 | O=S(=O)(c1cccc(NCc2ccccc2)c1)N1CCC(O)CC1 | 2 | -0.26
16 | COc1cc(-c2cc(C(=O)N3CCNC(=O)C3)n[nH]2)cc(OC)c1OC | -6 | 0.68
17 | CC1CCN(C[C@@H](O)Cn2nnc(-c3ccsc3)n2)CC1 | -11 | 2.04
18 | COc1ccc(CN2CCn3nc(CNc4cnccn4)cc3C2)c(OC)c1 | -4 | 0.39
19 | Cc1nn(C)c(N2CCN(c3ncc(Br)cn3)CC2)c1N | 5 | -0.95
20 | O=C(c1cccnc1)N1CCC(NC(=O)N2CCCC2C2CCC2)C1 (stereo unspecified) | -11 | 1.03
21 | CC(Cc1ccccc1Br)NC(=O)N1CCC[C@H]1CO (stereo partly specified) | -15 | 1.38
22 | O=C(Cc1ccc(S(=O)(=O)Nc2ccc(Cl)cc2)s1)N1CCCC1 | -7 | 1.33
23 | COc1ccc(CNC(=O)N2CCC[C@H](Oc3cnccn3)C2)cc1OC | -3 | 0.47
24 | C[C@@H](CCn1cccn1)n1cnc2cnccc2c1=O | -10 | 1.95
25 | CN(CCCc1cc(-c2ccccc2)n[nH]1)C(=O)C1CC1C(=O)O (stereo unspecified) | -21 | 3.04
26 | Cc1cnn(C2CN(c3cc(C)nc4ncnn34)C2)c1 | 0 | -0.06
27 | CN(C)CCOC1CCN(Cc2ccc3cc(Cl)ccc3n2)CC1 | -3 | 0.38

Row | Compound | % Inhibition [%] | Z score
28 | CCn1ncc2ccc(N[C@@H](C)c3cn(C4COC4)nn3)cc21 | -4 | 0.87
29 | CC(C)(C)OC(=O)N1C[C@H]2CCN(C(=O)C3(C)CCC3)CC[C@H]2C1 | -9 | 1.81
30 | N#Cc1ccc(CN2CCN3C(=O)NC[C@H]3C2)cc1 | -9 | 1.48
31 | CCCCN1CCCC[C@H]1C(=O)NCc1ccc(N2CCCC2=O)cc1 | 4 | -0.51
32 | O=C(Nc1nc2ccccc2s1)C12CCC(CC1)C2 | -34 | 4.02
33 | Cc1cccc(Cn2c(C(=O)Nc3ccccc3)cc3cc(NC(=O)C4CCC4)ccc32)c1 | 13 | -2.41
34 | CC(=O)N[C@H]1[C@H](c2ccccc2)N(CCC(C)C)CC[C@@]1(C)O | -3 | 0.39
35 | COc1cc(C(=O)Nc2nnc(-c3cccc4ccccc34)[nH]2)on1 | 0 | 0.03
36 | CN1CCN(C(=O)CN2C[C@@H](c3ccccc3Cl)OCC2(C)C)CC1 | -8 | 0.93
37 | O=C(c1cc(C2CC2)oc1C1CC1)N1CCOc2ccc(O)cc2C1 | 3 | -0.52
38 | COc1ccc(CCN2Cc3cc(NC(=O)OCc4ccccc4)ccc3O[C@@H](C)C2=O)cc1 | -4 | 0.46
39 | O=S(=O)(c1ccccc1)n1nc(NCc2ccc(Br)cc2)nc1NCc1ccc(Br)cc1 | -1 | 0.11
40 | CCO[C@@H](C)C(=O)Nc1ccnnc1C | 5 | -0.72
41 | CCN(C[C@H]1CCN(c2cc(=O)n(C)c(=O)n2C)C1)CC(F)(F)F | -24 | 3.2
42 | COc1ccccc1[C@H]1Oc2ccccc2-n2c(-c3ccc(C)cc3)c3c(=O)n(C)c(=O)n(C)c3c21 | 2 | -0.34
43 | O=C(NCC1CCN(C(=O)[C@@H]2CCc3ccccc32)CC1)c1ccsc1 | -7 | 1.14
44 | c1ccc(-c2csc(N3C[C@@H]4[C@H](C3)[C@H]3CC[C@@H]4O3)n2)cc1 | -5 | 0.94
45 | CC(C)C(C)S(=O)(=O)C(C)c1ncc(-c2ccccc2)o1 (stereo unspecified) | -7 | 0.94
46 | Cc1cc(C(=O)N2C[C@@H]3CC[C@H]2CN(Cc2cccnc2)C3)ccc1Cl | 2 | -0.46
47 | Cc1nn(C)c(C)c1S(=O)(=O)N[C@H]1CCCN(C2CCCCCC2)C1 | -21 | 1.94
48 | COCc1c(C(=O)N(C)[C@@H](C)c2nc(C)cs2)cnn1-c1nccc(-c2ccco2)n1 | -13 | 1.81
49 | C[C@H]1CN(C(=O)CN2C(=O)c3ccccc3C2=O)CCO1 | -3 | 0.37
50 | CCOC(=O)c1cc2n(n1)C[C@@](C)(C(=O)NCCC(C)C)N(c1cc(C)cc(C)c1)C2=O | -3 | 0.37
51 | CN1C(=O)c2ccccc2O[C@H]2CN(C(=O)NCc3ccccc3)C[C@H]21 | -11 | 1.42
52 | OC[C@H]1CCCN(c2nc(N3CCCC3)nc(N3CCCC3)n2)C1 | -11 | 1.49
53 | CN(C)CCNc1nc(-c2ccc(C(F)(F)F)cc2)c2c(N)n(C)nc2n1 | 22 | -2.12
